The other results are listed elsewhere or left out. The data describe in vitro nicking of single-stranded DNA by Rep domains for 1 h at 37 °C with 3 µM enzyme; only the middle of the 90-letter strands is printed. A value is the log2 ratio of uncut reads to the pool without enzyme; uncut sequences lie near 0, cut ones below; no hit call is given. Shares of all reads are compared; uncut strands gain when others are lost, and binding without cutting may add a little.

This test has as its system T1, Rep nickase domain of tomato golden mosaic virus.
T1 sequence (residues 1-124 of Rep, tag left off): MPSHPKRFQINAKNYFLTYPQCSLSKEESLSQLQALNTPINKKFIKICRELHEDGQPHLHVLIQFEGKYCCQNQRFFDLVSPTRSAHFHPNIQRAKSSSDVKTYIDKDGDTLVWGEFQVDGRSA
Put plainly: uncleaved DNA left, log2 of reads against the no-enzyme library (log2 ratio); higher = less cleavage (more negative = more Rep cleavage of the k-mer); sequences stand for … in CTCGTCCG…ACCGGAGA
As for the experimental part: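 A pool of 90-nt single-stranded DNAs with seven random bases just before the constant AC of the nick site (name = the seven bases) was cut by 3 µM recombinant His6-SUMO-tagged Rep nickase domain (300 nM DNA, 50 mM HEPES pH 8.0, 50 mM NaCl, 1 mM MnCl2, 1 h, 37 °C, three replicates). Uncut DNA was amplified and sequenced.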
With AATGGGC, the “uncleaved DNA left (log2)” value stood at 0.0138. In the case of GGATCAA, the “uncleaved DNA left (log2)” value was determined as 0.0202. Then TCGCCAT, with -0.0354; and AGCCTTT, with -0.339. Then CGAATGG, with -0.0863.

Turning to TAGCGAA, the “uncleaved DNA left (log2)” value was 0.0221.

As for TGGTAAA, the “uncleaved DNA left (log2)” value stood at 0.0659. Then TGCAATT, with 0.0273; and TCGATTC, with -0.119; and ACCTGTT, with -0.0458.

Turning to TTGCTTA, the “uncleaved DNA left (log2)” value is -0.014. Consider TCGCAAC, for which the “uncleaved DNA left (log2)” value is -0.0085.

In the case of TGACTGC, the “uncleaved DNA left (log2)” value was -0.0819. For CTAACGC, the “uncleaved DNA left (log2)” value was -0.142. Then GATTTGC, with -0.133.

As for TCCAGAC, the “uncleaved DNA left (log2)” value came to 0.0567. Then CCCCGGT, with 0.161; and CATACCG, with -0.0427. For CAAGTAC the value was -0.0347. For CCAATTA the value was 0.227; for GCCTACT, -0.0396; for AGTTAGT, -0.121.

Turning to GGGTGAG, the “uncleaved DNA left (log2)” value was 0.16. For GGTTCCT, the “uncleaved DNA left (log2)” value was 0.115. In the case of CGACACT, the “uncleaved DNA left (log2)” value is -0.129. For the sequence TGAATAA, the “uncleaved DNA left (log2)” value was -0.0379. For the sequence TCAGGGT, the “uncleaved DNA left (log2)” value came to 0.126.

Consider TTAATGC, for which the “uncleaved DNA left (log2)” value is -0.0835. For GGTGTTG the value was -0.0128.

With CGAAGTC, the “uncleaved DNA left (log2)” value turned out to be 0.0661. Then CAAACTC, with -0.0836; and GATTCCG, with -0.0898; and AACTATC, with -0.0486. For GCTATTC the value was 0.0217; for GGGTGGT, -0.0683; for CCTGTTG, 0.0661.

For the sequence AACATCC, the “uncleaved DNA left (log2)” value was -0.0593. Then CCCTGCA, with -0.00071; and GAGGGGA, with 0.0613. For the sequence AGACATC, the “uncleaved DNA left (log2)” value was -0.0817.
